# Laboratory results from the supplement of paper PMC11417369.
# ± gives the standard deviation of the averaged measurements. The list shows a part of the results.
# Test system: PfAP2-LT AP2 domain (GST-tagged)
# Experiment: gcPBM binding intensity (ln(normalized median fluorescence intensity)); higher = stronger DNA binding
# Procedure, shortened: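 Binding intensity values are the highest Masliner-normalised natural-log median intensity among replicate spots of either probe orientation. The binding step lasted 1 h in 1× PBS with 1% milk, 0.2 mg/ml BSA, 0.5% salmon testes DNA and 0.03% Triton X-100, using GST-tagged P. falciparum DNA-binding domains expressed in E. coli on an Agilent 4 × 180k array of primer-extended double-stranded 36-bp intergenic genomic probes plus negative controls. Alexa488 anti-GST antibody and a 488 nm scan detected bound protein.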
row,Sequence,gcPBM binding intensity (ln)
1,TTATTGGTTATATAAAGTACATTTGAAATATAATTG [XGTACX_site6553],8.36 ± 0.36
2,ATAATAATTTTATGCACACAGAAAAATACAAGGTTA [CACACA_site3510],9.01 ± 0.38
3,TTGCCTGACTTGTTCACACATATTTATGATATACAT [CACACA_site5783],9.13 ± 0.35
4,TTTTCTTGGTATATGATTTATCCTAAATAAGTAAAT [CACACA_negctrl_site294],8.34 ± 0.39
5,AAAAAAAATATATATATTAAAGTTTTAATTTTTATA [CACACA_negctrl_site497],8.18 ± 0.66
6,TTAGAATTTAGAGAAGTGCATATTAAGTTACGAATT [GTGCAC_site9861],8.54 ± 0.51
7,ATTATATATATATATAGTACTTTTTTTTTTTTTTTT [XGTACX_site8801],8.61 ± 0.51
8,AATATACACCCGTGTACACAAATATTTACAAAACGT [CACACA_site4786],9.2 ± 0.44
9,AAAAGGAATGAAAATTCACACAACTATAAATACATA [CACACA_site5337],8.88 ± 0.53
10,GTTACACCAACAAACACACACACACCCACCCACAAA [CACACA_site2427],10.3 ± 0.16
11,TGTATTATAATATTATGTACTTATAAATTTTATATT [XGTACX_site6432],8.69 ± 0.38
12,AATTTAAAGTTTTTTTTTTTTTTTTTTTTTTTTTTG [CACACA_negctrl_site1082],8.28 ± 0.53
13,TCTCACATTCTTATGGGTACACATGAGAAATTATAA [XGTACX_site6799],8.45 ± 0.42
14,TGGGTGGTAAAAATGTGTACATAAAAAAATAATGTT [XGTACX_site2235],8.78 ± 0.59
15,ATATTATTATAAAGTGGTACAATAAATGGTATTATA [XGTACX_site391],8.72 ± 0.47
16,TACAAAAGTTAAACATGTACTTAATTATATGTTTTT [XGTACX_site2852],8.57 ± 0.44
17,ATAAAAATGGATGAATATAAAAAAAAAAAAATATAT [CACACA_negctrl_site182],8.6 ± 0.54
18,GAATATATAAGAACAAATATGGCTTAGAAAAAAAAA [TGCATGCA_negctrl_site451],8.77 ± 0.45
19,CCCATGCATTTTTGCACACACATATATTTATAAATA [CACACA_site6785],9.44 ± 0.23

row,Sequence,gcPBM binding intensity (ln)
1,TATATATATGGGTTTACACACAATAATGAATTAAAA [CACACA_site915],8.9 ± 0.5
2,TCAAGTTTATATTAACTATTTATGAAAAAAAAAAGA [CACACA_negctrl_site902],8.23 ± 0.38
3,CTAAAAATTTTAATTGCACACCACGTTGGACTATTT [CACACA_site1489],8.91 ± 0.38
4,TTACACTAAATATGTTCACACATTTTTTCCATCATA [CACACA_site4647],8.79 ± 0.45
5,ATATATTACAAATGGAGTACTAAAAATATTCTATAT [XGTACX_site6669],8.76 ± 0.39
6,TATAAGGCAATAATAGTGCACTAAGATATATAATGA,9.04 ± 0.46
7,TGCATTTTCCTATTTGCATGCAATTAAAATATAGAA [TGCATGCA_site862],8.6 ± 0.31
8,GATTATTTAAAATATACATGCGCGCACATATGCATA [TGCATGCA_site630],9.04 ± 0.44
9,ATGTTTTAATGAGGTTTGCACTATATTTTAATGAAC,8.86 ± 0.4
10,AACATATATACAGTAACACACACAAAAAAATATGAA [CACACA_site9323],9.41 ± 0.3
11,ATCACTAACATGTGTTGTACATAAAATTTGTTTGTT [XGTACX_site2207],8.87 ± 0.39
12,TTATTATTTAACATGTGGACACAAAAATTTAAGGGT [XGTACX_site4638],8.72 ± 0.45
13,TTAACTTTTATATAGTGTACAAATAAATGCATACAG [XGTACX_site5958],8.64 ± 0.3
14,TCTACTACTTAATGGAGTACTAGCTTCATAATATTA [XGTACX_site7030],8.53 ± 0.47
15,TGCAAATTTAACAAAAAAAAAAAAAAAAAAAAAAAA [GTGCAC_negctrl_site64],8.05 ± 0.38
16,TATTATGTATAAAGAAGTACTTTTTTTTTTTTTTTC [XGTACX_site201],8.29 ± 0.54
17,TGAACACAGACAAATACACACAAAAAAAATAAATAA [CACACA_site4298],9.28 ± 0.57
18,ATATAATATACTTATTGTACTTATTTAAAATACTAA [XGTACX_site4266],8.44 ± 0.5
19,AAAAAATGGCTAGTTTGTACACAAAAGTTATTGCAT [XGTACX_site5381],8.96 ± 0.51

row,Sequence,gcPBM binding intensity (ln)
1,AAAAAAAAATAAAAATGTACATATATAATATTATAT [XGTACX_site71],8.76 ± 0.47
2,AAGATAAAATTATGCACACATACGAATAATTTTAAA [CACACA_site1705],8.95 ± 0.43
3,TTTCTCAATTCTTAGAGTACATAAATAAAAAAAAAA [XGTACX_site7639],8.07 ± 0.33
4,TTTTACAATAACAATACACACTATAATATATATATA [CACACA_site4893],8.77 ± 0.28
5,TAGGAGCCGAAACACACACACAAAAAAAAAAAAAAA [CACACA_site1731],9.47 ± 0.61
6,CATATATATAAATACACACACACACCCCTTATAATT [CACACA_site4064],10.2 ± 0.15
7,AAAAGAATTTGAAGTCGTACAATATCTATTATATGA [XGTACX_site8275],8.74 ± 0.39
8,TCAATAGTTACTAGTACATGCAAAAATAAACCTATA [TGCATGCA_site85],8.92 ± 0.38
9,CAAATATATATGTTCACACATATAATTATTGTGAAA [CACACA_site4190],8.69 ± 0.4
10,TTGCCATTAATTTATACACACACATTTTAATTTTTT [CACACA_site8150],9.16 ± 0.39
11,TTGTCATTTATAAAATGTACGTGTGTATATATTTAA [XGTACX_site5000],8.8 ± 0.38
12,AACATTTTTAAATATATAAAAATATATATATATATA [XGTACX_negctrl_site551],8.89 ± 0.18
13,TTATATTTATGATACACACACGTATATTCACATACA [CACACA_site6354],9.29 ± 0.3
14,TTTTAAAGCATATCATATAAAGAACATGACATAGGA [CACACA_negctrl_site630],8.59 ± 0.4
15,GTATGTTTAATTTTAGTGCAATTATAAATATTTTAA [GTGCAC_site9531],8.35 ± 0.35
16,AAGAAAATAAAATAAAAAAAAAAATAAAAAAAATAA [TGCATGCA_negctrl_site516],8.37 ± 0.74
17,AAATTGTCTGCATATAGTACATAAATATATTAATAT [XGTACX_site4557],8.68 ± 0.45
18,ATATATATATATATAGTGCATAATGTTTTAATAGAT,9.29 ± 0.16
19,TCTTTATATATATATATATGTGTGAATGTTAAGTAT [XGTACX_negctrl_site135],9.19 ± 0.3
